{"source": "paper PMC4336329", "about": "(PLoS ONE, 2015)", "note": "In all, about 310,000 compounds went through this assay and about 2,200 (0.71%) showed an effect of 50% or more. The effect is printed as a negative number. The list shows a part of the results."}
{"molecular_target": "human ether-à-go-go-related gene (hERG) potassium channel (human, UniProt Q12809)", "sequence (Q12809 whole entry, looked up)": "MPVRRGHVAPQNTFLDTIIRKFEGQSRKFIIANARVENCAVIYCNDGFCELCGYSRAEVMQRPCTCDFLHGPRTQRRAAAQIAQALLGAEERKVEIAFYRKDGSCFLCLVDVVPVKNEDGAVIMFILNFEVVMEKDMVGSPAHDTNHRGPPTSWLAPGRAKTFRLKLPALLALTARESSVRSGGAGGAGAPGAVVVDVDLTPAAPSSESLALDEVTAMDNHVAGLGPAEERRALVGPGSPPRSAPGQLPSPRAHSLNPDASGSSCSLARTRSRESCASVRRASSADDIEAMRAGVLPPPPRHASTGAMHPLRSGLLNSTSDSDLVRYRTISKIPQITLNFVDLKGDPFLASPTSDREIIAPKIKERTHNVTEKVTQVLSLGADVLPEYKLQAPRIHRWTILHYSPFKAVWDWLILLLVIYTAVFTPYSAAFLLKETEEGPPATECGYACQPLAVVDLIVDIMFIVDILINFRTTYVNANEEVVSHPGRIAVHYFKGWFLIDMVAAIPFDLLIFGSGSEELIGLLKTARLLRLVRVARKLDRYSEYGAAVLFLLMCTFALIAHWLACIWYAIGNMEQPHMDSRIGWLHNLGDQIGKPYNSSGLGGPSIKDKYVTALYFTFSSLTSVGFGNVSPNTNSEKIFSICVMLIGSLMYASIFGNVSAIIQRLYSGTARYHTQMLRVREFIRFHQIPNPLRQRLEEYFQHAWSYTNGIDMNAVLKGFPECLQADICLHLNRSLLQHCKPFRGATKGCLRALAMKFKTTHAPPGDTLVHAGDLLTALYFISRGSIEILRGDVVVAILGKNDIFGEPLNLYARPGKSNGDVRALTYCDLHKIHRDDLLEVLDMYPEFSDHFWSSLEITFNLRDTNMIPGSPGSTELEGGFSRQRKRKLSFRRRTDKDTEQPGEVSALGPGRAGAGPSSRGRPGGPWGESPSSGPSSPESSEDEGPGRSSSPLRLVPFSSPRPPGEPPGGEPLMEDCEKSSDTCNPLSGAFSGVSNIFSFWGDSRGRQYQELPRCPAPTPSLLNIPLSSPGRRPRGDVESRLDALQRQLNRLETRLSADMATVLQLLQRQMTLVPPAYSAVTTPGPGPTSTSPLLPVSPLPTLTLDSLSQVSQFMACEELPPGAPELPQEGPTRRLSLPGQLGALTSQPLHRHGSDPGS", "experiment": "primary screen, population patch clamp on CHO cells stably expressing hERG", "units": {"hERG current change (%, negative = inhibition) at 1uM": "%"}}
{"smiles": "Cc1cc(C)n2nc(C(=O)OCC(=O)N(CC(C)C)CC(C)C)nc2n1", "hERG current change (%, negative = inhibition) at 1uM": 8.64}
{"smiles": "O=C(NC1CCCCC1)NC1CCN(S(=O)(=O)Cc2ccccc2)CC1", "hERG current change (%, negative = inhibition) at 1uM": 4.63}
{"smiles": "COc1cccc(NC(=O)COc2cccc3c2CCNC3=O)c1", "hERG current change (%, negative = inhibition) at 1uM": 7.53}
{"smiles": "O=C1CN=C(c2ccccc2F)c2cc(Cl)ccc2N1", "hERG current change (%, negative = inhibition) at 1uM": 2.9}
{"smiles": "Cc1nn(-c2ccccc2)c(C)c1NC(=O)COC(=O)c1ccccc1", "hERG current change (%, negative = inhibition) at 1uM": 11.2}
{"smiles": "CCOC(=O)c1ccccc1NS(=O)(=O)c1c(C)nc2sccn2c1=O", "hERG current change (%, negative = inhibition) at 1uM": 6.14}
{"smiles": "CCC1(C)Cc2c(sc3nc4n(c(=O)c23)CCS4)CO1", "note": "(centres unmarked)", "hERG current change (%, negative = inhibition) at 1uM": -1.79}
{"smiles": "COc1ccc(OC)c(N(CC(=O)N2CCCC2)S(=O)(=O)c2ccccc2)c1", "hERG current change (%, negative = inhibition) at 1uM": 7.34}
{"smiles": "OCCNC(=S)NCCc1ccccc1", "hERG current change (%, negative = inhibition) at 1uM": 9.19}
{"smiles": "Cc1oc(C(C)(C)C)cc1C(=O)N1CCCC1C(=O)O", "note": "(centres unmarked)", "hERG current change (%, negative = inhibition) at 1uM": 9.18}
{"smiles": "COc1cccc(CN(C)CC(=O)NCc2ccc(C)cc2)c1.O=C(O)C(=O)O", "hERG current change (%, negative = inhibition) at 1uM": -18.3}
{"smiles": "O=C1CCN(S(=O)(=O)c2ccccc2)CCN1CCOCc1ccc(F)cc1", "hERG current change (%, negative = inhibition) at 1uM": 7.79}
{"smiles": "CCCc1nnc(NC(=O)CCC(=O)N2CCN(c3nc(C)cc(C)n3)CC2)s1", "hERG current change (%, negative = inhibition) at 1uM": 11.2}
{"smiles": "COc1nc(OC)nc(N2CCC(C(=O)NC3CC3)CC2)n1", "hERG current change (%, negative = inhibition) at 1uM": 22.2}
{"smiles": "Cc1ccc(CSc2nnc(-c3ccccc3N)c(=O)[nH]2)cc1", "hERG current change (%, negative = inhibition) at 1uM": 22.5}
{"smiles": "CC(OC(=O)/C=C/c1ccccc1)C(=O)N1CCc2ccccc21", "note": "(centres unmarked)", "hERG current change (%, negative = inhibition) at 1uM": 8.92}
{"smiles": "CCOC(=O)c1cn2c(C)cccc2n1", "hERG current change (%, negative = inhibition) at 1uM": 8.3}
{"smiles": "Cn1c(/C=N/n2cnnc2)nc2ccccc21", "hERG current change (%, negative = inhibition) at 1uM": 9.31}
{"smiles": "CSCCC(NS(=O)(=O)c1ccc2ccccc2c1)C(=O)O", "note": "(centres unmarked)", "hERG current change (%, negative = inhibition) at 1uM": 17.5}
{"smiles": "O=C(Nc1ccc(Br)cc1)C1CCCN1S(=O)(=O)c1cccs1", "note": "(centres unmarked)", "hERG current change (%, negative = inhibition) at 1uM": 13.6}
{"smiles": "CCSC1=N/C(=C\\c2ccc(C)s2)C(=O)S1", "hERG current change (%, negative = inhibition) at 1uM": 6.16}
{"smiles": "CN(Cc1ccccc1)C(=O)c1nc[nH]c1C(=O)N1CCc2ccccc2C1", "hERG current change (%, negative = inhibition) at 1uM": 19.7}
{"smiles": "O=c1cc(-c2ccc(O)cc2)oc2ccccc12", "hERG current change (%, negative = inhibition) at 1uM": 15}
{"smiles": "O=C(O)c1ccc(Cn2cnc3cccnc32)cc1", "hERG current change (%, negative = inhibition) at 1uM": 17.6}
{"smiles": "CCOC(=O)[C@H]1[C@H]2COc3ccccc3[C@@H]2N2C(=O)c3cc(Br)ccc3NC(=O)[C@@]12C", "hERG current change (%, negative = inhibition) at 1uM": 3.07}
{"smiles": "COc1ccc(CCCC(=O)NC2CCCCC2C)c(C)c1", "note": "(centres unmarked)", "hERG current change (%, negative = inhibition) at 1uM": 4.6}
{"smiles": "Cc1cccc(NC(=O)c2ccc(S(=O)(=O)N3CCCCCC3)cc2)n1", "hERG current change (%, negative = inhibition) at 1uM": 7.3}
{"smiles": "Oc1oc(-c2ccccc2)nc1C=Nc1cccc2ccccc12", "hERG current change (%, negative = inhibition) at 1uM": -5.64}
{"smiles": "CCOC(=O)C1CCCN(S(=O)(=O)Cc2ccccc2)C1", "note": "(centres unmarked)", "hERG current change (%, negative = inhibition) at 1uM": 12.8}
{"smiles": "CC(NCc1ccc2c(c1)OCO2)C(=O)N1CCc2ccccc21", "note": "(centres unmarked)", "hERG current change (%, negative = inhibition) at 1uM": 3.4}
{"smiles": "Cc1ccc(CSCC(=O)NCc2ccco2)cc1", "hERG current change (%, negative = inhibition) at 1uM": -5.3}
{"smiles": "CC(C)(C)NC(=O)C1Cc2ccccc2CN1C(=O)Nc1cccc(Cl)c1", "note": "(centres unmarked)", "hERG current change (%, negative = inhibition) at 1uM": 8.2}
{"smiles": "O=C(O)CN1CCN(Cc2ccc(F)cc2)C1=O", "hERG current change (%, negative = inhibition) at 1uM": 14.8}
{"smiles": "CCCCC(=O)N/N=C(\\C)CC(=O)Nc1ccccc1Br", "hERG current change (%, negative = inhibition) at 1uM": 11.2}
{"smiles": "O=C(c1cccnc1)N1CCC(Oc2ccc(C(=O)N3CCCC(O)C3)cc2)CC1", "note": "(centres unmarked)", "hERG current change (%, negative = inhibition) at 1uM": 3.9}
{"smiles": "CCOC(=O)CC1=NN(c2ccccc2)C(=O)/C1=C\\c1ccc(OC)cc1OC", "hERG current change (%, negative = inhibition) at 1uM": 4.4}
{"smiles": "CN(C(=O)CCc1ccccc1F)C1CCCN(Cc2ccccc2F)C1", "note": "(centres unmarked)", "hERG current change (%, negative = inhibition) at 1uM": 12.7}
{"smiles": "CCCC(=O)Nc1ccccc1NC(=O)CCC", "hERG current change (%, negative = inhibition) at 1uM": 6.22}
{"smiles": "c1ccc(-n2nnnc2Cc2nnnn2-c2ccccc2)cc1", "hERG current change (%, negative = inhibition) at 1uM": 17.1}
{"smiles": "O=S(=O)(N/N=C1/CCCc2ccccc21)c1ccc(Br)cc1", "hERG current change (%, negative = inhibition) at 1uM": -0.0836}
{"smiles": "COc1ccc(CCN2C(=O)CN(Cc3ccccc3)CC2=O)cc1OC", "hERG current change (%, negative = inhibition) at 1uM": -0.637}
{"smiles": "Cc1cccc(OCC(=O)N/N=C/c2ccccc2C(=O)O)c1", "hERG current change (%, negative = inhibition) at 1uM": 13.3}
{"smiles": "Nc1nnc2c(C(F)(F)F)nc3ccccc3n12", "hERG current change (%, negative = inhibition) at 1uM": 14.3}
{"smiles": "CCc1ccc(C(=O)CSc2nnc(C)c(=O)[nH]2)cc1", "hERG current change (%, negative = inhibition) at 1uM": 4.47}
{"smiles": "COC(=O)c1cccc(Oc2cccc(Cl)n2)c1", "hERG current change (%, negative = inhibition) at 1uM": 14.3}
{"smiles": "COC(=O)c1ccc(CSc2nc3ccccc3c(=O)n2Cc2ccco2)o1", "hERG current change (%, negative = inhibition) at 1uM": 0.306}
{"smiles": "Cc1ccc(C)c(OCCn2ccnc2)c1", "hERG current change (%, negative = inhibition) at 1uM": 14.2}
{"smiles": "NS(=O)(=O)c1ccc(CNC(=S)NC2CCCC2)cc1", "hERG current change (%, negative = inhibition) at 1uM": 6.91}
{"smiles": "CCC(=O)N1CC(C)C(=O)Nc2ccccc21", "note": "(centres unmarked)", "hERG current change (%, negative = inhibition) at 1uM": 15.3}
{"smiles": "Cc1nnc(SCC(=O)NCc2ccco2)n1-c1ccc(F)cc1", "hERG current change (%, negative = inhibition) at 1uM": 1.96}
{"smiles": "COC(=O)[C@H]1[C@H](C(=O)OC)[C@@H](C(=O)OC)N(c2ccc(OC)cc2)[C@@H]1C(=O)OC", "hERG current change (%, negative = inhibition) at 1uM": 33}
{"smiles": "Cc1c(C(c2ccccc2Br)c2c(C)n(C)n(-c3ccccc3)c2=O)c(=O)n(-c2ccccc2)n1C", "hERG current change (%, negative = inhibition) at 1uM": 11}
{"smiles": "COc1ccc(NC(=O)CCN2C(=O)NC3(CCCC3)C2=O)cc1Cl", "hERG current change (%, negative = inhibition) at 1uM": 2.81}
{"smiles": "CCOc1ccc(S(=O)(=O)N2CCC(C(=O)NCCc3ccc(OC)c(OC)c3)CC2)cc1", "hERG current change (%, negative = inhibition) at 1uM": 4.11}
{"smiles": "COc1ccc(N2CCN(C(=O)c3ccc(N(C)S(=O)(=O)c4ccc(OC)cc4)cc3)CC2)cc1", "hERG current change (%, negative = inhibition) at 1uM": 11.2}
{"smiles": "CCC(=O)N1CCc2cc(S(=O)(=O)NC(C(=O)Nc3cccc(C)n3)C(C)C)ccc21", "note": "(centres unmarked)", "hERG current change (%, negative = inhibition) at 1uM": 15.7}
{"smiles": "Cc1ccc(-n2c(=O)c3ccccc3n(CC(=O)C(C)(C)C)c2=O)cc1", "hERG current change (%, negative = inhibition) at 1uM": 11.8}
{"smiles": "COc1cccc(N2CCN(C(=O)c3ccc(CS(=O)Cc4ccccc4Cl)o3)CC2)c1", "note": "(centres unmarked)", "hERG current change (%, negative = inhibition) at 1uM": 15}
{"smiles": "COc1cc(C2NC(=S)NC(c3ccccc3)=C2C(C)=O)cc(Cl)c1OCC(=O)O", "note": "(centres unmarked)", "hERG current change (%, negative = inhibition) at 1uM": 5.45}
